The list shows a part of the results.
Test system: HSkMC (human skeletal muscle cells)
Assay: cytotoxicity call (relative viability < 0.9)
Details: 10 µM

Row | SMILES | cytotoxicity call
1 | C[C@@H]1CN([C@H](C)CO)C(=O)c2cc(C#Cc3ccccc3F)cnc2O[C@@H]1CN(C)S(=O)(=O)c1ccccc1 | inactive
2 | CCS(=O)(=O)Nc1ccc2c(c1)C(=O)N(C)[C@H]1CC[C@@H](CC(=O)NCCOC)O[C@@H]1CO2 | inactive
3 | C[C@H](CO)N1C[C@H](C)[C@@H](CN(C)CC2CCCCC2)Oc2ccc(NC(=O)Nc3ccc(C(F)(F)F)cc3)cc2C1=O | inactive
4 | CCCCCN1C/C=C\CCC(=O)N(C)[C@H](C)[C@@H](c2ccccc2)OC(=O)[C@@H]2[C@@H]3C=C[C@]4(O3)[C@H](C1=O)N(c1ccccc1Cl)C(=O)[C@@H]24 | inactive
5 | O=C(C[C@@H]1C=C[C@H](NC(=O)c2cccnc2)[C@@H](CO)O1)NCCN1CCCCC1 | inactive
6 | C[C@@H]1CN([C@@H](C)CO)C(=O)c2cccc(NS(C)(=O)=O)c2O[C@H]1CN(C)C(=O)Nc1ccc2c(c1)OCO2 | inactive
7 | C[C@H](CO)N1C[C@H](C)[C@H](CN(C)Cc2cccc(C(=O)O)c2)OCc2ccccc2-c2c(n(C)c3ccccc23)C1=O | inactive
8 | C[C@H]1CN([C@@H](C)CO)S(=O)(=O)c2ccc(C3=CCCC3)cc2O[C@@H]1CN(C)C(=O)c1cnccn1 | inactive
9 | COC(=O)c1c2oc(c1C(=O)OC)C(=O)N(C)Cc1cn(nn1)C[C@H](Cc1ccccc1)NC(=O)N[C@H](CO)CC2 | inactive
10 | C[C@H](CO)N1C[C@H](C)[C@H](CN(C)S(=O)(=O)c2cn(C)cn2)Oc2ccc(NS(=O)(=O)c3ccc(F)cc3)cc2CC1=O | inactive
11 | C[C@@H]1CCCCO[C@@H](CN(C)C(=O)Nc2ccc3c(c2)OCO3)[C@H](C)CN([C@H](C)CO)C(=O)c2cc(NC(=O)Nc3ccc(C(F)(F)F)cc3)ccc2O1 | inactive
